The values below come from article PMC5892938.

The other results are listed elsewhere or left out. At the low end of the ranking the order means little.

For this test, the target named is GST-SBP-SLBP (stem-loop binding protein) (UniProt Q14493). The experiment in a line: targeted RNA Bind-n-Seq.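 Also: DESeq read counts versus GST-SBP nonspecific binding control pulldown.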 The note with it: RBNS binding buffer: 25 mM Tris pH 7.5, 150 mM KCl, 3 mM MgCl2, 0.1% Tween, 0.5 mg/mL BSA, 1 mM DTT; 27 nM protein, 750 pM RNA pool; temperature not stated; high values mean tight binding.
Consider “GGUCACGUCUCAAUCAACUCUUUCUCCAGGGAAAACCCUGGUAAAUUCAACAGCUCGCAGUCAAG”, for which the binding signal (log2 fold change) was -0.119. Turning to “GGUCACGUCUCAAUCAACUCACAAGAGGGGGGGAAAACCCCUUUACCCUCGUUAUCAACAGCUCGCAGUCAAG”, the binding signal (log2 fold change) is -0.204. With “GGUCACGUCUCAAUCAACUCUAUCUCCAGGGAAAGCCCUGGUAAUCUCAACAGCUCGCAGUCAAG” the figure was -0.221. As for “GGUCACGUCUCAAUCAACUCUUUUUCCAGGGAAAACCCUGGCAUUCUCAACAGCUCGCAGUCAAG”, the binding signal (log2 fold change) came to 0.0765. With “GGUCACGUCUCAAUCAACUCAUUUUCCAGGGAAACCCCUGGCGUUUUCAACAGCUCGCAGUCAAG” the figure was -0.203; with “GGUCACGUCUCAAUCAACUCAUCUUCAGGAGUUUCCUCCUGCAUUUUCAACAGCUCGCAGUCAAG”, 0.139; with “GGUCACGUCUCAAUCAACUCUAUCUCCAGGGAAAGCCCUGGCUAAUUCAACAGCUCGCAGUCAAG”, -0.176. “GGUCACGUCUCAAUCAACUCUUCUCCAGGAGUUUUCUCCUGCAUAUUCAACAGCUCGCAGUCAAG”: the binding signal (log2 fold change) turned out to be 0.0479. With “GGUCACGUCUCAAUCAACUCCUACGAGGGGGGGAAAACCCCUUUACCCUCUCAUUCAACAGCUCGCAGUCAAG” the figure was 0.0844. With “GGUCACGUCUCAAUCAACUCAACUUCCAGGGAAAUCCCUGGUUAAUUCAACAGCUCGCAGUCAAG” the figure was 0.106. As to “GGUCACGUCUCAAUCAACUCAACUCCAGGAGUUUUCUCCUGUUUUCUCAACAGCUCGCAGUCAAG”, the binding signal (log2 fold change) is -0.00677. For the sequence “GGUCACGUCUCAAUCAACUCAUUUUCAGGAGUUUUCUCCUGCUUAGUCAACAGCUCGCAGUCAAG”, the binding signal (log2 fold change) is 0.152. “GGUCACGUCUCAAUCAACUCAUUCUCCAGGGAAACCCCUGGUAAUUUCAACAGCUCGCAGUCAAG”: the binding signal (log2 fold change) was -0.192. Take “GGUCACGUCUCAAUCAACUCAUCCUCAGGAGUUUACUCCUGCUAAUUCAACAGCUCGCAGUCAAG”: the binding signal (log2 fold change) is -0.0509.

With “GGUCACGUCUCAAUCAACUCAUCUCCAGGAGUUUACUCCUGCAAUUUCAACAGCUCGCAGUCAAG”, the binding signal (log2 fold change) came out at 0.0648. With “GGUCACGUCUCAAUCAACUCCUAAGAGGGGGGGAAAACCCCUUUACCCUCAUUCUCAACAGCUCGCAGUCAAG” the figure was -0.204. With “GGUCACGUCUCAAUCAACUCUCUAGAGGGGGGGAAAACCCCUUUACCCUCAUCAUCAACAGCUCGCAGUCAAG” the figure was 0.113; with “GGUCACGUCUCAAUCAACUCAAACGAGGGGGGGAAAACCCCUUUGCCCUCAUUAUCAACAGCUCGCAGUCAAG”, 0.0544; with “GGUCACGUCUCAAUCAACUCUUUCCCAGGAGUUUCCUCCUGCUUUUUCAACAGCUCGCAGUCAAG”, -0.0378.

For “GGUCACGUCUCAAUCAACUCUUUCCCAGGAGUUUACUCCUGUAAUCUCAACAGCUCGCAGUCAAG”, the binding signal (log2 fold change) was determined as 0.000119. In the case of “GGUCACGUCUCAAUCAACUCUUUUUCCAGGGAAAGCCCUGGCUUAUUCAACAGCUCGCAGUCAAG” it was -0.155; in that of “GGUCACGUCUCAAUCAACUCAACUCCAGGAGUUUACUCCUGUUAUCUCAACAGCUCGCAGUCAAG”, -0.121. With “GGUCACGUCUCAAUCAACUCAGUCCCCAGGGAAAGCCCUGGUAUAUUCAACAGCUCGCAGUCAAG” the figure was -0.12; with “GGUCACGUCUCAAUCAACUCAAUCCCCAGGGAAACCCCUGGUUUUCUCAACAGCUCGCAGUCAAG”, -0.00492; with “GGUCACGUCUCAAUCAACUCUAUCUCAGGAGUUUUCUCCUGCUAACUCAACAGCUCGCAGUCAAG”, -0.0805. Turning to “GGUCACGUCUCAAUCAACUCAUUAGAGGGGGGGAAAACCCCUUUACCCUCAAUAUCAACAGCUCGCAGUCAAG”, the binding signal (log2 fold change) was -0.0895. Take “GGUCACGUCUCAAUCAACUCAAUCCCCAGGGAAAACCCUGGUAUUCUCAACAGCUCGCAGUCAAG”: the binding signal (log2 fold change) was 0.102. On to “GGUCACGUCUCAAUCAACUCUAUGUCAGGAGUUUACUCCUGCUAAUUCAACAGCUCGCAGUCAAG”, for which the binding signal (log2 fold change) worked out at 0.0189. For the sequence “GGUCACGUCUCAAUCAACUCACAAGAGGGGGGGAAAACCCCUUUGCCCUCGUAUUCAACAGCUCGCAGUCAAG”, the binding signal (log2 fold change) is -0.492. On to “GGUCACGUCUCAAUCAACUCUUCUUCCAGGGAAAACCCUGGUUAUCUCAACAGCUCGCAGUCAAG”, for which the binding signal (log2 fold change) is -0.23. Consider “GGUCACGUCUCAAUCAACUCAUCUUCCAGGGAAAUCCCUGGCAAACUCAACAGCUCGCAGUCAAG”, for which the binding signal (log2 fold change) is 0.0166.

As to “GGUCACGUCUCAAUCAACUCCAAUGAGGGGGGGAAAACCCCUUUACCCUCCAAAUCAACAGCUCGCAGUCAAG”, the binding signal (log2 fold change) is -0.373.

With “GGUCACGUCUCAAUCAACUCAUUCCCAGGAGUUUCCUCCUGUAGUCUCAACAGCUCGCAGUCAAG”, the binding signal (log2 fold change) is 0.119. In the case of “GGUCACGUCUCAAUCAACUCAAUCUCAGGAGUUUUCUCCUGCAAUGUCAACAGCUCGCAGUCAAG” it was 0.14; in that of “GGUCACGUCUCAAUCAACUCAUUCUCCAGGGAAAACCCUGGCAUACUCAACAGCUCGCAGUCAAG”, -0.116. With “GGUCACGUCUCAAUCAACUCUUCCCCCAGGGAAAGCCCUGGCAUUCUCAACAGCUCGCAGUCAAG” the figure was -0.00216; with “GGUCACGUCUCAAUCAACUCAUCUUCCAGGGAAAACCCUGGCUUAUUCAACAGCUCGCAGUCAAG”, 0.115.
